Measurements as given in PubChem BioAssay AID624417 (National Center for Advancing Translational Sciences (NCATS), 2012).
Out of some 410,000 compounds screened, about 6,400 (1.6%) were called active. The inconclusive results got no clear call from the source; some entries with a clear call stand among them for comparison. The call rests on the fitted dose curve; in most records, active means well fitted inhibition curve with a large enough effect; inconclusive means small, poorly fitted or top-dose-only effect; inactive means no such curve, though single readings can be large or run the other way. Where the call is inconclusive, the potency comes from a doubtful curve fit.

Molecular target: Glucagon-like peptide 1 receptor (Homo sapiens) (UniProt P43220)
Sequence of UniProt P43220 (P43220 whole entry, looked up): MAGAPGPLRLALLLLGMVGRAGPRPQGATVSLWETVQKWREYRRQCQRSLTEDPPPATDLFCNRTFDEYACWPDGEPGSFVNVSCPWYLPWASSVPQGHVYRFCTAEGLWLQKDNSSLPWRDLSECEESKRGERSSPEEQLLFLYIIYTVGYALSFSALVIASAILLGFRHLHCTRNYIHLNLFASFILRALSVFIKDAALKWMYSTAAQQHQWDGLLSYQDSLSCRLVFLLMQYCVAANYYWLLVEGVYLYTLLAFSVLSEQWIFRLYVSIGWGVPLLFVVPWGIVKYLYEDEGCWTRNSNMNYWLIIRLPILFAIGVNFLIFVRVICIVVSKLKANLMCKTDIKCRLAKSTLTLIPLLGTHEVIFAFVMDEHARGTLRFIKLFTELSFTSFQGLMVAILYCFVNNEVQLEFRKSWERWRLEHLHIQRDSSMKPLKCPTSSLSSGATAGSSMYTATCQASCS
Experiment: qHTS of GLP-1 Receptor Inverse Agonists (Inhibition Mode); further: nearly all actives have a fitted effect of over 55% in size
Conditions: HEK293 GLP-1R CRE-luciferase, luminescence, 24 h, GLP-1R form is constitutively active; activity change, negative = inhibition: at 38.3 µM (top of the series) unless noted
Summary of the method: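 HEK293 cells stably co-expressing constitutively active GLP-1R and a cAMP-responsive luciferase reporter were seeded in DMEM with 10% Nu serum, given compounds after 12 h, and incubated 24 h at 37 deg C. Luminescence was then read.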
On the % scale 0 is the no-effect control and ±100 the full control effect; potency means the concentration at half of the fitted maximal effect; tags describe the fitted curve by direction and shape.

Activity change, negative = inhibition, inactive:
Cc1ccc(-c2n[nH]c(=S)c3ccccc23)cc1S(=O)(=O)NCC1CCCO1 (stereo not drawn) 77.1%
O=S(=O)(NC(=S)NC1CCCCC1)c1cccs1 0.958%
COCCN(CCOC)C(=O)c1cc2c(=O)n3ccccc3nc2s1 11.3%
O=C(C(O)c1ccccc1)N1CCN(S(=O)(=O)c2ccc(OC(F)(F)F)cc2)CC1 (stereo not drawn) 10.9%
COc1cccc(N2CCN(C(=O)c3ccc4c(=O)n(CCc5ccccc5)c(=O)[nH]c4c3)CC2)c1 -7.72%

Potency, active:
COc1ccc2[nH]c(=O)c(CN(Cc3cccnc3)S(=O)(=O)c3ccccc3F)cc2c1 5.01 µM

Potency, inconclusive:
O=C(CSc1n[nH]c(=O)n1C1CC1)Nc1cc(Cl)ccc1Oc1ccccc1 10 µM [inhibitor, partial curve, poor fit]
CCCNS(=O)(=O)c1ccc(CCC(=O)Nc2cc(Cl)ccc2Oc2ccccc2)cc1 7.94 µM [inhibitor, partial curve, poor fit]
CCOC(=O)c1ccc(Nc2cc(C)nc(C)c2C(=O)OCC)cc1 28.2 µM [inhibitor, single point]
NC(=O)c1cccc(-c2cnc3c(Nc4cccc(OC(F)(F)C(F)F)c4)nccn23)c1 10 µM [inhibitor, single point]
COc1ccc(N2CCN(C(=O)CN(c3cccc(OC)c3)S(=O)(=O)c3ccccc3)CC2)cc1 28.2 µM [inhibitor, single point]
Fc1ccc(-n2nnnc2-c2ccccc2Cl)cc1 10 µM [inhibitor, single point]
O=C(Cc1n[nH]c(=O)c2ccccc12)OCC(=O)N(Cc1ccccc1)Cc1ccccc1 28.2 µM [inhibitor, single point]
O=C(N/N=C/c1cccc(F)c1)NC1CCCCC1 28.2 µM [inhibitor, single point]
C[C@H](CO)N1C[C@H](C)[C@@H](CN(C)C(=O)Nc2ccc(C(F)(F)F)cc2)Oc2ccc(NC(=O)C3CCCCC3)cc2C1=O 28.2 µM [inhibitor, single point]
CCOC(=O)C1Nc2c(cc(C(F)(F)F)cc2[N+](=O)[O-])C2c3ccccc3CC12 (stereo not drawn) 22.4 µM [inhibitor, single point]
Cc1nc(C(F)(F)F)ccc1C(=O)Nc1ccc(C(F)(F)F)cn1 12.6 µM [inhibitor, single point]
CCOc1ccc(-c2nc(CSCC(=O)N3CCN(c4cccc(C(F)(F)F)c4)CC3)c(C)o2)cc1 10 µM [inhibitor, partial curve, poor fit]
Cc1cccc(OCC(=O)Nc2c(C)ccc3nsnc23)c1C 12.6 µM [inhibitor, partial curve, poor fit]
O=C(NN=Cc1ccc2c(c1)CCC2)c1ccccc1[N+](=O)[O-] 10 µM [inhibitor, single point]
CCN(CC)c1nc(Nc2ccc([N+](=O)[O-])cc2)nc(N(CC)CC)n1 2 µM [inhibitor, full curve, poor fit]
Cc1ccc(Cl)c2c1N[C@@H](c1ccc(C(=O)O)cc1)[C@H]1CC=C[C@@H]21 11.2 µM [inhibitor, single point]
COc1ccccc1CN(C)CC(=O)Nc1cccc(S(=O)(=O)N2CCCC2)c1 8.91 µM [inhibitor, partial curve]
CCOc1ccc(OCC)c(NC(=O)CN2CCN(c3cccc(C)c3)C(C)C2)c1 (stereo not drawn) 6.31 µM [inhibitor, partial curve, poor fit]
COc1ccccc1CNS(=O)(=O)c1cc(C(=O)Nc2cccc(C(F)(F)F)c2)ccc1F 8.91 µM [inhibitor, partial curve, poor fit]
CCN(CC)CCN1C(=O)/C(=C\c2ccc(Cl)c([N+](=O)[O-])c2)SC1=Nc1ccc(OC)cc1 28.2 µM [inhibitor, single point]
Cc1ccc(NCCCn2ccc(NC(=O)OCc3ccccc3)nc2=O)cc1C 10 µM [inhibitor, single point]
O=C(c1cc(Br)c(Br)s1)N1CCN(C/C=C/c2ccccc2)CC1 11.2 µM [inhibitor, partial curve, poor fit]
Cc1ccccc1SCC(=O)NCC(c1ccc(F)cc1)N1CCOCC1 (stereo not drawn) 11.2 µM [inhibitor, partial curve, poor fit]
COc1ccc(/C=N/NC(=S)SC)cc1OC 0.501 µM [inhibitor, full curve, poor fit]
C=CCNCCCCOc1ccc(Br)cc1C 22.4 µM [inhibitor, single point]
Cc1ccc(-c2nn(-c3ccccc3)cc2C(=O)Nc2ccc(C)c(S(=O)(=O)N3CCOCC3)c2)cc1 2.51 µM [inhibitor, full curve, poor fit]
CCOc1ccc(CCN2C(=S)N([C@@H](Cc3ccc(O)cc3)CN3CCCC3CN3C(=S)NC[C@@H]3Cc3ccc(O)cc3)C[C@@H]2CC(C)C)cc1 (stereo partly drawn) 7.08 µM [inhibitor, partial curve, poor fit]
COc1ccccc1CN1CCCC(CN(CCN(C)C)C(=O)C2CCCC2)C1 (stereo not drawn) 28.2 µM [inhibitor, single point]
Cc1ccc(Cl)cc1N1CCN(S(=O)(=O)c2ccc3[nH]c4c(c3c2)CCCCC4)CC1 20 µM [inhibitor, partial curve, poor fit]
Cc1c(C(=O)N2CCCCC2C)sc2ncnc(N3CCc4ccccc4C3)c12 (stereo not drawn) 28.2 µM [inhibitor, single point]
COc1cccc(CNC(=O)c2ccc(CSc3nc4ccncc4n3Cc3cccc(C)c3)cc2)c1 10 µM [inhibitor, partial curve, poor fit]

Potency, inactive:
COc1ccc(C2=NS(=O)(=O)N(C)C(C(=O)Nc3cc(C)ccc3O)=C2)cc1OC
